Measurements: the supplement of paper PMC12217912
The list shows a part of the results. Sequences were assembled here from the parent chain. Inactive controls read about 0.05.

B1: TEV protease; numbered along this chain (parent)
chain: MGESLFKGPRDYNPISSSICHLTNESDGHTTSLYGIGFGPFIITNKHLFRRNNGTLVVQSLHGVFKVKDTTTLQQHLVDGRDMIIIRMPKDFPPFPQKLKFREPQREERICLVTTNFQTKSMSSMVSDTSCTFPSGDGIFWKHWIQTKDGQCGSPLVSTRDGFIVGIHSASNFTNTNNYFTSVPKNFMELLTNQEAQQWVSGWRLNADSVLWGGHKVFMVKPEEPFQPVKEATQL

Variants of: B1
Assay: raw area under fraction-flipped curve 0-4 h after induction (AUC4h, not background-subtracted), DNA-recorder readout of cleavage of the substrate (dimensionless); higher = more cleavage of the substrate by the protease variant
Conditions: temperature: 34 °C; time window: 0-4 h after rhamnose induction
Experimental: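 In vivo DNA recorder in E. coli TOP10(DE3) ΔrhaA at 34 °C. Each TEVp single-site mutant (parent TEVp 0) is paired with a single-site variant of the 7-mer TEVs (canonical ENLYFQ|S). The substrate sits between flexible linkers in a Bxb1-sfGFP-TEVs-SsrA fusion, so cleavage stabilises Bxb1 and speeds flipping of a recombination array, read by NGS. The value is the raw area under the fraction-flipped curve over 0-4 h after rhamnose induction (AUC4h), with ≥20 reads per time point. It is not background-subtracted; inactive controls average about 0.047.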
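Also: Bxb1 expression induced with 0.2% (w/v) L-rhamnose at OD600 near 0.5, cultures sampled hourly, flipped fraction per protease–substrate barcode pair counted by paired-end Illumina sequencing.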

Variant | area with substrate ENLYCQS | area with substrate ENLYDQS | area with substrate ENLYEQS | area with substrate ENLYGQS | area with substrate ENLYHQS | area with substrate ENLYIQS | area with substrate ENLYKQS | area with substrate ENLYMQS | area with substrate ENLYNQS | area with substrate ENLYPQS | area with substrate ENLYQQS | area with substrate ENLYRQS | area with substrate ENLYSQS | area with substrate ENLYTQS | area with substrate ENLYVQS | area with substrate ENLYWQS | area with substrate ENLYYQS | area with substrate ENLYAQS | area with substrate ENLYLQS
N13G | 0.0761 | 0.054 | 0.0652 | 0.0572 | 0.0656 | 0.112 | 0.0622 | 0.0636 | 0.0654 | 0.0703 | 0.0611 | 0.0527 | 0.0618 | 0.0594 | 0.107 | 0.0775 | 0.0607 |  | 
N13K | 0.0916 | 0.0576 | 0.0662 | 0.0686 | 0.0767 | 0.128 | 0.0642 | 0.0698 |  | 0.0791 | 0.0652 | 0.0666 | 0.0734 | 0.0646 |  | 0.0674 |  |  | 
G166V | 0.0556 | 0.0626 | 0.0459 | 0.0406 | 0.0467 |  | 0.0458 | 0.0522 | 0.0504 |  |  | 0.0611 | 0.051 | 0.058 | 0.042 | 0.036 |  | 0.0412 | 0.0376
G166R |  | 0.0478 | 0.0468 | 0.0435 | 0.0491 | 0.0476 | 0.039 | 0.0521 | 0.0534 | 0.049 | 0.0568 | 0.0524 | 0.0475 | 0.0452 | 0.058 |  |  | 0.0528 | 
L156W |  | 0.0591 | 0.0639 | 0.0593 | 0.0648 | 0.0607 | 0.0483 | 0.0615 | 0.0642 | 0.0702 | 0.0548 | 0.0656 | 0.0609 | 0.0593 | 0.0586 | 0.0576 | 0.0499 | 0.0537 | 0.0654
S171E |  | 0.0662 | 0.0497 |  | 0.0712 |  | 0.0643 |  |  | 0.0644 |  | 0.058 |  |  | 0.0564 | 0.0561 |  | 0.0788 | 
M219V | 0.107 | 0.0656 | 0.0665 | 0.0565 |  | 0.0914 | 0.0665 | 0.107 | 0.0656 |  | 0.0524 | 0.0488 | 0.0479 | 0.078 | 0.0885 |  |  | 0.0875 | 0.0346
Q234K | 0.122 | 0.0461 | 0.074 | 0.0639 | 0.0641 | 0.127 | 0.0211 | 0.121 | 0.072 | 0.0894 |  | 0.0452 | 0.0962 | 0.0597 | 0.126 |  | 0.0682 | 0.0815 | 
W199H | 0.0562 | 0.062 | 0.0573 |  | 0.0633 |  | 0.0369 | 0.0666 | 0.0537 | 0.0656 | 0.0511 |  | 0.0655 |  | 0.049 | 0.0598 |  | 0.0472 | 
F187E |  | 0.0587 | 0.0541 | 0.0571 | 0.0479 | 0.0465 | 0.028 | 0.0426 | 0.0442 | 0.0492 |  | 0.0632 | 0.0572 |  | 0.0542 | 0.0473 | 0.0466 | 0.0424 | 0.0574
F187Q |  | 0.061 | 0.0342 |  | 0.066 | 0.156 | 0.0527 | 0.0592 | 0.0513 | 0.051 | 0.0622 | 0.0674 |  |  | 0.0912 | 0.0573 | 0.0639 | 0.0563 | 
Y12K | 0.0831 | 0.0611 | 0.0547 | 0.0809 | 0.0644 | 0.111 | 0.0571 | 0.0722 | 0.0735 | 0.0726 | 0.102 | 0.0607 | 0.0558 | 0.0754 | 0.0902 | 0.0835 |  |  | 0.0696
N175F |  | 0.0632 | 0.0452 | 0.0583 | 0.082 |  | 0.0536 |  | 0.0574 | 0.0524 | 0.0721 | 0.0576 | 0.0667 |  | 0.0865 |  | 0.0682 | 0.0696 | 
F218P |  |  | 0.0597 | 0.072 | 0.0559 |  | 0.0734 | 0.0601 |  | 0.0521 | 0.0676 | 0.0673 |  | 0.0605 | 0.0516 |  |  | 0.08 | 
L205W | 0.0698 |  | 0.0552 |  | 0.0541 |  |  |  |  | 0.0638 | 0.0756 | 0.0643 | 0.0608 |  | 0.0692 |  |  | 0.0663 | 0.0652
N186L |  | 0.0509 | 0.0683 | 0.0643 | 0.0668 | 0.123 | 0.0602 | 0.103 | 0.068 | 0.0647 | 0.0675 | 0.0558 |  | 0.0721 |  | 0.0728 | 0.0603 | 0.0816 | 0.0838
F173D |  | 0.0706 | 0.0722 | 0.0608 | 0.0615 | 0.0896 | 0.0652 | 0.06 | 0.069 | 0.0637 | 0.0777 | 0.0638 | 0.0614 | 0.0709 | 0.104 | 0.069 |  | 0.0734 | 0.131
W203Y | 0.052 | 0.0605 | 0.0627 |  | 0.0622 |  | 0.0589 | 0.0759 | 0.0677 | 0.0855 | 0.0546 | 0.0658 | 0.059 | 0.0622 | 0.0633 |  | 0.0381 | 0.0699 | 
Q197K |  | 0.0842 | 0.0652 | 0.0543 | 0.0564 | 0.121 |  |  | 0.0591 | 0.0746 |  |  |  |  | 0.148 | 0.0724 | 0.086 | 0.0511 | 0.0779
S4N | 0.0997 | 0.0927 | 0.0756 |  | 0.069 |  | 0.0683 | 0.0796 | 0.0611 | 0.0789 | 0.0665 |  | 0.0646 |  | 0.183 | 0.0653 |  |  | 0.0882
F180C |  | 0.0425 | 0.0681 |  | 0.0367 |  | 0.0448 | 0.0704 | 0.061 | 0.071 |  | 0.076 | 0.0704 |  |  |  | 0.0465 | 0.0701 | 
F163V |  |  |  | 0.0696 | 0.0763 |  | 0.0708 |  | 0.0565 | 0.107 | 0.0648 | 0.0545 |  | 0.0945 | 0.103 | 0.093 |  | 0.0689 | 
F163R |  |  | 0.0711 | 0.0621 | 0.0692 |  | 0.0549 | 0.0945 | 0.0809 | 0.0728 | 0.0761 | 0.0586 | 0.0734 |  | 0.122 | 0.113 |  | 0.0486 | 0.0842
I167T |  | 0.0553 | 0.0653 |  | 0.0636 | 0.0745 | 0.067 | 0.0562 | 0.0565 |  |  |  | 0.0536 | 0.0681 |  | 0.0635 |  | 0.071 | 
I167W |  | 0.063 | 0.0563 | 0.0576 |  | 0.0425 |  |  | 0.056 | 0.0565 | 0.0554 | 0.0629 |  |  | 0.0792 |  | 0.0413 | 0.058 | 0.0705
